The source of these data is PubChem BioAssay AID1346428 (National Center for Advancing Translational Sciences (NCATS), 2018).

Several values for one entry are separate records, joined by “and”; a condition that tells them apart may be missing. Identical values can stand only once. Hit rate of the full screen: of about 48,000 compounds, about 1,200 (2.5%) were called active. Roughly 2% stayed inconclusive and do not appear here.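 How the source made its calls: active means activation of at least 60% and not above a set upper limit (about 1 call in 100 departs from these limits); inconclusive means activation of 40% to 60%, or above that upper limit; inactive means activation under 40%.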 Some of the results follow.

Sequence of UniProt O75388 (O75388 whole entry, looked up, the tested form may be a part): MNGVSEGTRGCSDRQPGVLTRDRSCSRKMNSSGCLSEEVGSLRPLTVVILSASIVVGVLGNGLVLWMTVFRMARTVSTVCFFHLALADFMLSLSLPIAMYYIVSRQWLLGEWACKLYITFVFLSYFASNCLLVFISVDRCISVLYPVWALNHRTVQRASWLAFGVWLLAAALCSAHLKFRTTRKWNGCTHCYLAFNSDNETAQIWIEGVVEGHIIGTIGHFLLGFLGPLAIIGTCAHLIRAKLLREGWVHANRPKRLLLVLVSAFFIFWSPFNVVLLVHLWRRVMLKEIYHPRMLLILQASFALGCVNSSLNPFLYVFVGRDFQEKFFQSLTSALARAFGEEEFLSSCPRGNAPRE

In the test the target is Probable G-protein coupled receptor 32 (Homo sapiens) (UniProt O75388). As to the kind of experiment: qHTS for Agonists of Human Resolvin D1 Receptor DRV1. Further: 0% is about no effect. The note with it: CHO-K1 GPR32 beta-arrestin PathHunter luminescence, 90 min; at 76.9 µM; active compounds read high; zero percent set by DMSO-only wells. Summed up:
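Agonism was scored as beta-arrestin recruitment to ProLink-fused GPR32 in stably transfected CHO-K1 cells, giving a chemiluminescent beta-Gal signal; compounds were incubated 90 min at 37 °C.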
In general terms: qHTS replaces the single test concentration by a dilution series.
As to `CCc1ccccc1NC(=O)CSc1ncc2c(n1)-c1ccccc1N(C)S2(=O)=O`, the activation is inactive: 3.74%.

With `CCOC(=O)N1CCC(NC(=O)c2cnn(-c3ccccc3)c2C2CCN(C(=O)OC(C)(C)C)CC2)CC1`, the activation was inactive: 3.52%.

For the molecule `COc1ccc(S(=O)(=O)NCCc2sc(-c3ccccc3)nc2C)cc1OC`, the activation was inactive: 21.4%.

Take `Cc1ccc(/C=C/c2onc(C)c2S(=O)(=O)N2CCC(C(=O)NCc3ccco3)CC2)cc1`: the activation is active: 88.3%.

Take `CCN(CC)c1ccc(NC(=O)CN2C(=O)c3cccnc3Oc3ccccc32)c(C)c1`: the activation was inactive: -14.9%.

`Cc1cc(C)cc(NS(=O)(=O)c2ccc(-c3cc(C)no3)cc2)c1`: the activation was inactive: -8.63%.

Turning to `Cc1ccc(CCNC(=O)c2ccc3c(c2)N(Cc2cc(C)ccc2C)C(=O)c2ccccc2S3=O)cc1` (stereo not given), the activation was inactive: -7.33%.

For `COc1ccc2c(c1)NC(c1ccc(F)cc1)=NC(c1ccc(F)cc1)=N2`, the activation was inactive: -30.8%.

For the molecule `CCOC(=O)c1cccc(NS(=O)(=O)c2cc(Br)cc3c2N(C(=O)C2CC2)CC3)c1`, the activation was inactive: -4.63%.

Regarding `COc1ccc(NC(=O)C2CCN(C3=NS(=O)(=O)C(c4ccc(C)c(C)c4)=C3C)CC2)cc1OC`, the activation was inactive: 11.4%.

As to `COc1cccc(N2CCN(C(=O)CN3CCSc4ccc(S(=O)(=O)N(C)C)cc43)CC2)c1`, the activation is inactive: -13.5%.

For `COC(=O)c1ccc(OCC2c3cc(OC)c(OC)cc3CCN2C(=O)c2cccc(C)c2)cc1` (stereo not given), the activation was inactive: -9.63%.

Regarding `COc1ccc(CNC(=O)CCS(=O)(=O)c2cc(Br)cc3c2N(C(=O)C2CC2)CC3)cc1`, the activation is inactive: -6.16%.

Take `CCCCN(Cc1ccccc1)S(=O)(=O)c1ccc2c(c1)CCN2C(=O)C1CCC1`: the activation was inactive: -26.4%.

Turning to `COc1cccc(CNC(=O)Cn2c(=O)n3nc(-c4cccc(C)c4)nc3c3ccccc32)c1`, the activation is inactive: 14.9%.

For the molecule `COc1ccc(Nc2ncnc3onc(C)c23)cc1Cl`, the activation was inactive: 6.26%.

As to `CCCSCCCNC(=O)C1CCCN(C(=O)c2cnn(-c3ccccc3)c2-n2cccc2)C1` (stereo not given), the activation was inactive: -9.71%.

`O=C(Cn1nc(Cc2cccnc2)c2ccccc2c1=O)N1CCN(c2ccc(F)cc2)CC1`: the activation is inactive: -28.2%.

Turning to `O=C(O)C1CCCNC1` (stereo not given), the activation was inactive: 6.22%.

In the case of `Cc1ccc2occ(CC(=O)Nc3c(C)cccc3C)c2c1`, the activation is inactive: -12.5%.

As for `CCCN(C(=O)c1ccc2c(=O)n3c(nc2c1)CCCCC3)c1cccc(Cl)c1`, the activation was inactive: -2.89%.

Take `Cc1cc(C)cc(NCc2nnc3n2CCCCC3)c1`: the activation was inactive: 13.4%.

Take `Cc1cccc(C)c1NC(=O)C(C)N` (stereo not given): the activation is inactive: 0.321% and inactive: 4.98%.

Take `Cc1cccc(C)c1NC(=O)CCSCCc1ccccn1`: the activation is inactive: 2.01%.

Consider `COc1cn(CC(=O)Nc2ccc(C)cc2)c(CN2CCCCC2)cc1=O`, for which the activation is inactive: -14.8%.

In the case of `COc1ccc(OCC(=O)N2CCN(C(=O)c3ccc(OC)c(OC)c3)CC2)cc1`, the activation was inactive: -0.229%.

On to `COc1ccccc1CN1CCC(CNC(=O)c2cnn(-c3cccc(Cl)c3)c2C2CCN(C(=O)OC(C)(C)C)CC2)CC1`, for which the activation was inactive: -14.8%.

For the molecule `Cc1c(NS(=O)(=O)c2ccc(C(C)(C)C)cc2)c(=O)n(-c2ccccc2)n1C`, the activation is inactive: -10.1%.

As for `O=C(CCNS(=O)(=O)c1ccc2c(c1)CCN2C(=O)C1CC1)Nc1ccc(Cl)cc1`, the activation was inactive: 45.6%.

For `CC(=O)N1CCc2cc(Br)cc(S(=O)(=O)CCC(=O)NCc3ccc(F)cc3)c21`, the activation was inactive: -0.928%.

Regarding `Cc1cc2c(cc1S(=O)(=O)NCc1ccc(F)cc1)OCC(=O)N2`, the activation is inactive: 16.4%.

Consider `Cc1cccc(NC(=O)CN2C(=O)C(c3ccc(F)cc3)=NC23CCCCCC3)c1C`, for which the activation is inactive: -8.45%.

Regarding `COc1ccc(NC(=O)CN2C(=O)COc3ccc(S(=O)(=O)NC4CCCC4)cc32)cc1OC`, the activation is inactive: -9.37%.

As to `O=C(c1ccccc1)n1nc(-c2ccc(Cl)cc2)nc1NCc1ccco1`, the activation is inactive: -2.93%.

Consider `CCOC(=O)c1cc2c(=O)n3ccccc3nc2n(CCOC)c1=NC(=O)c1c(-c2c(F)cccc2Cl)noc1C`, for which the activation was inactive: -2.15%.

As for `CSc1ccc(CCNC(=O)Cn2ncc3c([nH]c4ccccc43)c2=O)cc1`, the activation was inactive: -10.6%.

In the case of `CCC(C(=O)NC(=O)NC(C)=O)c1ccccc1` (stereo not given), the activation was inactive: -4.77%.

For the molecule `Cc1ccc(-n2ncc3c(NC4CCCCC4)ncnc32)cc1C`, the activation was inactive: 3.7%.

`CN(Cc1ccccc1)C(=O)c1ccc(CSc2nc3cccnc3n2Cc2ccccc2)cc1`: the activation is inactive: -3.39%.

With `Cc1cccc(N2CCN(C(=O)Cc3c(C(=O)O)c(C)cn3C)CC2C)c1` (stereo not given), the activation was inactive: 1.42%.

As to `COc1ccc(N2CCN(C(=O)C3CCCN(S(=O)(=O)c4ccc5c(c4)oc(=O)n5C)C3)CC2)cc1` (stereo not given), the activation was inactive: 14.2%.

Regarding `CCC(=O)NCCc1sc2nc(-c3ccc(OC)cc3)nn2c1C`, the activation is inactive: 31.6%.

With `COc1ccccc1CCNC(=O)C1(c2cccs2)CCOCC1`, the activation is inactive: 13.6%.

`CCc1cccc(NC(=O)CCn2nc(C)cc2C)c1`: the activation was inactive: -10.1%.

On to `COC(=O)c1c(NC(=O)COc2ccc(C(C)C)cc2)sc2c1CCCC2`, for which the activation was inactive: 28.5%.

For the molecule `COc1ccc(C2CC(=O)Nc3c2c(C)nn3-c2nc(C)cc(C)n2)c(OC)c1OC` (stereo not given), the activation is inactive: 4.94%.

With `CCCCc1cc2ccccc2c(OCCN(C)C)n1`, the activation was inactive: 30.1%.

Consider `COc1ccc(OC)c(NC(=O)c2nnn(CC(=O)Nc3ccc(C(C)C)cc3)c2N)c1`, for which the activation was inactive: -0.421%.

Turning to `COc1ccc(NC(=O)Cn2cnc3c(nc4n3CCCCC4)c2=O)cc1Cl`, the activation is inactive: -13%.

On to `COc1ccc(CCNC(=O)c2ccc3nc(CCc4ccccc4)oc3c2)cc1OC`, for which the activation is inactive: 5.66%.

Consider `COc1ccc(NC(=O)Cn2c(=O)oc3cc(S(=O)(=O)N4CCCC4)ccc32)cc1OC`, for which the activation was inactive: 9.83%.

As to `CCCS(=O)(=O)Nc1cccc(-c2cn3ccsc3n2)c1`, the activation was inactive: 18.5%.

As for `Cc1cccc(CSc2nc3ccncc3n2CC(=O)N(C)C2CCCCC2)c1`, the activation was inactive: -7.25%.

In the case of `Cc1ccc(NC(=O)c2ccc(-c3ccccc3)s2)cc1`, the activation was inactive: -3.77%.

As to `Cc1ccc(N2C(=O)CSC23C(=O)N(CC(=O)NCCc2ccccc2)c2ccccc23)cc1` (stereo not given), the activation was inactive: -1.45%.

Regarding `CCC1CN(C(=O)N2CCC(C(=O)NCc3cccs3)CC2)c2ccccc2O1` (stereo not given), the activation is inactive: -6.92%.

As for `COc1ccc(N2CCN(C(=O)c3noc4c3CCCCC4)CC2)cc1`, the activation is inactive: -19.9%.

`O=c1oc2c(CN3CCOCC3)c(O)ccc2cc1-c1ccccc1`: the activation was inactive: -36.5%.

In the case of `CC(=O)c1ccc(NC(=O)c2sc(-n3nc(C)c(Cc4ccc5c(c4)OCO5)c3C)nc2C)cc1`, the activation was inactive: -6.65%.

For the molecule `CCC1CCCCN1CCCNC(=O)c1ccc2c(c1)N(Cc1cccc(Cl)c1)C(=O)c1ccccc1S2(=O)=O` (stereo not given), the activation was inactive: -44.8%.

Turning to `O=C(Nc1ccc2oc(-c3ccc(Br)cc3)nc2c1)c1cc2ccccc2o1`, the activation was inactive: 13.2%.

For the molecule `COc1cccc(CNCc2c(C(=O)O)n(Cc3ccc(C)cc3)c3cc(C)ccc23)c1OC`, the activation is inactive: 9.1%.

In the case of `COc1ccc(-c2nc3ccccc3o2)cc1NC(=O)c1cc(Br)ccc1OC`, the activation is inactive: 0.332%.

Regarding `COc1ccc(C)cc1NC(=O)NCCn1nnc2cc(S(=O)(=O)N(C)C)ccc21`, the activation was inactive: -9.71%.

On to `Cc1nnc(NC(=O)CSc2nc3c([nH]c4ccccc43)c(=O)n2-c2cccc(Cl)c2)s1`, for which the activation was inactive: -15.9%.

Regarding `CCOC(=O)c1ccccc1NC(=O)c1sc2nc(-c3ccc(F)cc3)cn2c1C`, the activation was inactive: -15%.

`O=C(NCCc1nc2ccccc2n1Cc1ccc(Cl)cc1)c1ccccc1`: the activation was active: 80.5%.

In the case of `CC(C(=O)O)c1ccc2c(c1)[nH]c1ccc(Cl)cc12` (stereo not given), the activation is inactive: 17.9%.

Regarding `COc1ccc(CCNC(=O)c2cnc3sc(N4CCCCCC4)nn3c2=O)cc1`, the activation is inactive: 6.15%.

On to `Cc1ccc(C(=O)OCc2cc(=O)n3nc(CC(C)C)sc3n2)cc1`, for which the activation is inactive: -11.2%.

For the molecule `O=C(Cn1cc(S(=O)(=O)Cc2ccccc2F)c2ccccc21)Nc1ccc(F)c(Cl)c1`, the activation was inactive: 10.7%.

Regarding `COc1ccc(CNc2ncnc3c2c(-c2ccccc2)cn3-c2ccc(C)c(Cl)c2)cc1`, the activation was inactive: -25.4%.

For `COc1ccc2c(CNCc3ccco3)c(C(=O)O)n(Cc3cccc(F)c3)c2c1`, the activation is inactive: -2.21%.

Take `COc1ccc(NC(=O)Cn2c(=O)n(-c3ccc(OC)cc3)c(=O)c3sc4ccccc4c32)cc1`: the activation is inactive: 2.1%.

As for `Cn1c(NCCCO)nc2c1c(=O)n(Cc1cccc(F)c1)c(=O)n2C`, the activation is inactive: -12%.

For `COc1ccc(C(=O)Nc2ccc(-c3nc4ccccc4s3)c(Cl)c2)cc1Cl`, the activation is inactive: 21.8%.

As to `CCCN(CCC)C(=O)C1CCN(c2cc(C)nc3c(-c4ccc(Cl)cc4)c(C)nn23)CC1`, the activation is inactive: -4.1%.

As to `COc1cc(C(=O)Nc2cc(C)c(O)c(-c3nc4ccccc4s3)c2)cc(OC)c1OC`, the activation is inactive: -1.16%.

For `Cc1cc2nc(-c3ccc(OCc4ccccc4F)cc3)cc(C(F)(F)F)n2n1`, the activation was inactive: -6.67%.

`CCCc1nn2c(=O)cc(COC(=O)c3ccc4c(c3)OCO4)nc2s1`: the activation was inactive: 27%.

`Cc1ccc(C)c(NC(=O)c2oc(=O)c3ccccc3c2-c2ccccc2)c1`: the activation is inactive: -1.33%.

Turning to `Cc1ccc(-c2c(C(=O)Nc3ccccc3F)oc(=O)c3ccccc23)cc1`, the activation was inactive: -21%.

`Cn1c(NCCN)nc2c1c(=O)n(Cc1ccccc1)c(=O)n2C`: the activation is inactive: -32.6%.

In the case of `Cc1ccc(C)c(Cn2c(SCC(=O)NCc3ccccc3)nc3ccccc32)c1`, the activation is inactive: -29%.

For `CCOC(=O)c1cccc(NC(=O)C2=C(C)C(=O)OC23CCCCC3)c1`, the activation is inactive: -24.2%.
